Test results published in PMC4336329 (PLoS ONE, 2015).
Out of some 310,000 compounds screened, about 2,200 (0.71%) showed an effect of 50% or more. Effects have a minus sign here. Some of the results follow.

Each compound was assayed against human ether-à-go-go-related gene (hERG) potassium channel (human, UniProt Q12809) (assay: primary screen, population patch clamp on CHO cells stably expressing hERG).
Sequence of human ether-à-go-go-related gene (hERG) potassium channel (Q12809 whole entry, looked up): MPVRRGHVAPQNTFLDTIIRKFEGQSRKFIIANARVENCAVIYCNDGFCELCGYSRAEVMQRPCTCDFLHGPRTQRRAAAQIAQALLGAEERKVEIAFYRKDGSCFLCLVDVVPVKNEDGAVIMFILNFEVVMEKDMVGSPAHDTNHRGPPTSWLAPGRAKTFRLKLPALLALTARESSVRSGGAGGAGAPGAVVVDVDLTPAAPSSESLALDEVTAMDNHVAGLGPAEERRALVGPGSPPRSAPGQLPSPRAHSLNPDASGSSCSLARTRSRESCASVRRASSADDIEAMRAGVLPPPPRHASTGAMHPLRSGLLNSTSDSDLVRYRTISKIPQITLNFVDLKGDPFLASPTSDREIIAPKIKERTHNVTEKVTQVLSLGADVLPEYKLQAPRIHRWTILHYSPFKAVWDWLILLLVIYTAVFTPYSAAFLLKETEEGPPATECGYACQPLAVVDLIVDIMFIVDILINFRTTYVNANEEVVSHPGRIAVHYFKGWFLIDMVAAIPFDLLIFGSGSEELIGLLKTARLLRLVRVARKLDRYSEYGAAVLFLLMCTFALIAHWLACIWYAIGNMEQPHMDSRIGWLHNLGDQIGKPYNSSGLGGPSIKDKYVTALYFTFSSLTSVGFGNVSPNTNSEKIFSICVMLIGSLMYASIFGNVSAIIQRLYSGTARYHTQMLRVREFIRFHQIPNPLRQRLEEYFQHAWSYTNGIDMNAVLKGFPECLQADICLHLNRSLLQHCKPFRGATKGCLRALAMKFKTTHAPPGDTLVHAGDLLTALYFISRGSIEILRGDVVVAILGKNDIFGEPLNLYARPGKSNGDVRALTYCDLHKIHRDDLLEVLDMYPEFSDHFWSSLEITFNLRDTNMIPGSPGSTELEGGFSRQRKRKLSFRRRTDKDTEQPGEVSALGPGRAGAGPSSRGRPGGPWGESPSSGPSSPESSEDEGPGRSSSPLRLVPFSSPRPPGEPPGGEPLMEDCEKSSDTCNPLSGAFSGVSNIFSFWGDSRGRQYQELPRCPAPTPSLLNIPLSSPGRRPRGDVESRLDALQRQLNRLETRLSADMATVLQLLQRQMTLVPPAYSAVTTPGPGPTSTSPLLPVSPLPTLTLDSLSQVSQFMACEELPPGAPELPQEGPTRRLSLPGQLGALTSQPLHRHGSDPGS

Row | SMILES | hERG current change (%, negative = inhibition) at 1uM [%]
1 | CC(OC(=O)c1ccco1)C(=O)Nc1ccc(C(F)(F)F)cc1 (stereo not drawn) | 5.12
2 | N#Cc1cccc(NC(=O)Cc2ccsc2)c1 | 16.5
3 | CN(C)c1cccc2c(C=C(C#N)C#N)ccc(N(C)C)c12 | -6.83
4 | COc1ccc(NC(=O)Cn2c(=O)n(CC3CCCO3)c(=O)c3ccccc32)c(OC)c1 (stereo not drawn) | 10.3
5 | O=C(Cn1nc(Cc2cccnc2)c2ccccc2c1=O)NCc1ccc(F)cc1 | -13.2
6 | Oc1ccc(N2CCN(C(c3ccncc3)c3nnnn3C3CCCC3)CC2)cc1 (stereo not drawn) | 1.94
7 | Cc1ccc2sc(NC(=O)CN3C(=O)c4ccccc4C3=O)nc2c1C | 8.06
8 | Nc1ccc(C#Cc2ccccc2)cc1 | -3.21
9 | Cc1sc2ncn(CC(=O)N3CCC(C(N)=O)CC3)c(=O)c2c1S(=O)(=O)N1CC(C)CC(C)C1 (stereo not drawn) | 19.2
10 | Cc1ccc(NC2CCCN(C(=O)CN3C(=O)c4ccccc4C3=O)C2)cc1C (stereo not drawn) | 16
11 | O=C(c1ccccc1)c1ccccc1 | 13.6
12 | Cc1cc(OCC(=O)OCC(=O)NC2CCCCC2C)ccc1Cl (stereo not drawn) | 5.07
13 | COc1ccccc1C(=O)N1CCN(Cc2nc(CC3CC3)no2)CC1 | 13.8
14 | O=C1CCCC2=C1C(c1cccs1)CC(=O)N2c1ccc(F)cc1 (stereo not drawn) | -1
15 | COC(=O)c1ccc(CNC(=O)CSC2=NCCS2)cc1 | 10.3
16 | N#CC1=C(N)Oc2cc(Nc3ccccc3)ccc2C1c1ccncc1 (stereo not drawn) | 5.45
17 | COc1ccc(S(=O)(=O)N2CCCC2c2cccs2)cc1 (stereo not drawn) | 17.6
18 | COc1ccccc1C(CNC(=O)CNC(=O)c1ccc(Cl)c(Cl)c1)N1CCCC1 (stereo not drawn) | 8.3
19 | COc1cc(OC)cc(C(=O)NCCCNC(=O)c2cccnc2)c1 | 13.6

Row | SMILES | hERG current change (%, negative = inhibition) at 1uM [%]
20 | COc1ccc(S(=O)(=O)Nc2ccc(F)cc2F)cc1C(=O)N1CCOCC1 | 9.98
21 | CCOC(=O)c1sc(NC(=O)CSc2nc(C)cc(C)c2C#N)c(C#N)c1C | 7.95
22 | O=C(COC(=O)c1ccc([N+](=O)[O-])s1)Nc1ccc(Cl)cn1 | 6.28
23 | Cc1ccc2nc(-c3ccccc3)cc(C(=O)NCCCn3ccnc3)c2c1 | -0.904
24 | COc1ccccc1-n1c(SCC(=O)O)nc2sc3c(c2c1=O)CCC3 | 14.5
25 | COc1cc(/C=N/OCC(=O)Nc2cc(C)on2)ccc1OCc1ccccc1 | 32.3
26 | Cc1ccc(Oc2nc(-c3ccccc3)ncc2S(C)(=O)=O)cc1 | 19.7
27 | CC1CCN(c2ccc([N+](=O)[O-])cc2C(N)=O)CC1 | 6.34
28 | COc1ccc(S(=O)(=O)Nc2ccccn2)cc1C(=O)Nc1ccccc1 | -4.15
29 | C=CCc1c(C)nc(SC)nc1Nc1ccc(C(C)=O)cc1 | 4.27
30 | CCN1CCN(C(=O)CN(CC)S(=O)(=O)c2ccc(F)cc2)CC1 | 15.2
31 | CC(=O)N(Cc1cc(=O)[nH]c2ccccc12)c1ccc(C)cc1 | -2.33
32 | CCn1nnnc1SCC(=O)N1c2ccccc2CCc2ccccc21 | 7.72
33 | CCOc1cc(C(=O)Nc2ccc([N+](=O)[O-])cn2)cc(OCC)c1OCC | 0.649
34 | O=S(=O)(CCN1CCSCC1)c1ccc(Cl)cc1 | 12.1
35 | O=C(CNC(=O)c1ccncc1)N/N=C/c1cc(Br)ccc1OCc1ccccc1 | 8.38
36 | CCS(=O)(=O)c1ccc2c(c1)N(S(C)(=O)=O)CC(C(=O)NN)O2 (stereo not drawn) | 24
37 | COc1cccc(C(=O)NC(=S)N2c3ccccc3CC2C)c1OC (stereo not drawn) | 13.3
38 | COc1ccc(C=Nc2cccc3ncccc23)cc1 | 11.2

Row | SMILES | hERG current change (%, negative = inhibition) at 1uM [%]
39 | O=C(COC(=O)c1ccccc1Nc1cccc(C(F)(F)F)c1)NCc1ccco1 | 7.43
40 | CCOC(=O)c1c(N)sc2c1C1CCN2CC1.Cl | 2.69
41 | COc1ccc(C(=O)N2CCCC(CCC(=O)NCc3ccc(F)c(F)c3)C2)o1 (stereo not drawn) | 9.6
42 | O=C1/C(=C\c2cccc(O)c2)SC(=S)N1Cc1ccccc1 | 12.1
43 | CC1(C)Cc2ccccc2-c2nnc(-c3ccccn3)n21 | -4.71
44 | O=C(CN(C1CCCCC1)S(=O)(=O)c1ccccc1)NCc1ccco1 | 5.45
45 | CCn1c(=O)c(C(=O)CN2CCN(S(=O)(=O)c3ccccc3)CC2)c(N)n(Cc2ccccc2)c1=O | 12
46 | N#Cc1ccc(CN2CCN(CC(=O)Nc3ccccc3C(=O)NC3CC3)CC2)cc1 | -87.4
47 | O=C(CCCN1C(=O)c2ccccc2C1=O)OC1CSCC1NC(=O)c1ccccc1 (stereo not drawn) | -1.58
48 | COc1cccc(/C=N/NC(=O)CNC(=O)COc2cccc(C)c2)c1O | 7.09
49 | Cc1ccsc1/C=N/NC(=O)Cc1cccn1C | 2.33
50 | COc1ccccc1-c1nc2c3ccccc3nc(=S)n2[nH]1 | 32.3
51 | CCNc1nc(ON=C(C)C)nc(N(C)C)n1 | 3.92
52 | Cc1onc(-c2c(Cl)cccc2Cl)c1NC(=O)NNc1ccccc1 | 0.77
53 | CCCc1cc(=O)[nH]c(SCC(=O)NCc2ccc3c(c2)OCO3)n1 | -6.32
54 | Cc1cc(C)c2c(c1)/C(=N/NC(=S)Nc1ccc(F)cc1)CCC2 | 9.47
55 | CCOC(=O)C1=C(COC(=O)/C=C/c2ccc([N+](=O)[O-])cc2)NC(=O)NC1C (stereo not drawn) | -23.8
56 | C/C(=N\NC(=O)Cn1nc(C)c([N+](=O)[O-])c1C)c1ccco1 | 21.4
57 | COc1ccc(OC)c(S(=O)(=O)N2CCC(C(=O)NC3CCCCCC3)CC2)c1 | 9.77
